Out of some 310,000 compounds screened, about 2,200 (0.71%) showed an effect of 50% or more. The effect is printed as a negative number. Some of the results follow.
Molecular target: human ether-à-go-go-related gene (hERG) potassium channel (human, UniProt Q12809)
Test: primary screen, population patch clamp on CHO cells stably expressing hERG

human ether-à-go-go-related gene (hERG) potassium channel, sequence (Q12809 whole entry, looked up): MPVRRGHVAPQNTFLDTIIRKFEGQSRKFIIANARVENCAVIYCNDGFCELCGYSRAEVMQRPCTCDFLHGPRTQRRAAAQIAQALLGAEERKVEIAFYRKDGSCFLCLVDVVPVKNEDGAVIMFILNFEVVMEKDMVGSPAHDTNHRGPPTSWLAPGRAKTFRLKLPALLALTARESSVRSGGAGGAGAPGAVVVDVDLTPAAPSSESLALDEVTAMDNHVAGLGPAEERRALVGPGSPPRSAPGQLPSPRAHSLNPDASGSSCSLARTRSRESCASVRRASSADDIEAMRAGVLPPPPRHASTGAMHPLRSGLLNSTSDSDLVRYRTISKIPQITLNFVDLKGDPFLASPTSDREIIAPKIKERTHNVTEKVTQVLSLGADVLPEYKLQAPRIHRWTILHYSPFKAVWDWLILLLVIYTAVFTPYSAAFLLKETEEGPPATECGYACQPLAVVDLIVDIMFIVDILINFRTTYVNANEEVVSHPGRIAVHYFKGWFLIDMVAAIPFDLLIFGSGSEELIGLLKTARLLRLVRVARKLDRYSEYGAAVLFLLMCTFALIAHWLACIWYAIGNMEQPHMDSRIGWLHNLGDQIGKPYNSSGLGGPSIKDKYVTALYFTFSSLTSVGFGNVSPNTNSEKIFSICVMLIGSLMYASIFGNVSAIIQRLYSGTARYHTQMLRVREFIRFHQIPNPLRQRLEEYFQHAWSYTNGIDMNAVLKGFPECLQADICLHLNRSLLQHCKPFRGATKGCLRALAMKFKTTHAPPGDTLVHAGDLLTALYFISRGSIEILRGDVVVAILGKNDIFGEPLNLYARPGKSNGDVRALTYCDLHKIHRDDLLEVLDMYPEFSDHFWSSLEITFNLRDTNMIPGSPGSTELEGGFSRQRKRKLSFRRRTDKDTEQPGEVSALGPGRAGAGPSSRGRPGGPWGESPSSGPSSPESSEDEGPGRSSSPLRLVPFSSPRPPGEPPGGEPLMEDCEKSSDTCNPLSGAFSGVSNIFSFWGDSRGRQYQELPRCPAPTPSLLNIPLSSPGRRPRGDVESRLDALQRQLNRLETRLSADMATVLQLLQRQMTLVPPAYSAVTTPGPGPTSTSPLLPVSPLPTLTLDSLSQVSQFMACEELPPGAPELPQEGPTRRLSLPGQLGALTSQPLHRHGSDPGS

Compared with `CCCCc1cc(=O)oc2cc(O)cc(O)c12`, `CCn1c(=O)cc(O)c2c(=O)n(C)c(=O)n(C)c21` is higher in “hERG current change (%, negative = inhibition) at 1uM” value: 8.24% for the first, 10.1% for the second.

First: O=C(CN1C(=O)NC2(CCCC2)C1=O)NNC(=O)c1ccccc1F
Second: O=C1NCCN1Cc1ccccc1F
The “hERG current change (%, negative = inhibition) at 1uM” value of the first is higher: 18.3% for the first, 7.03% for the second.

Compared with `O=C(O)c1cc2nc3c(c(C(F)(F)F)n2n1)CCCC3`, `NC(=O)Cn1c(=O)n(CCc2ccccc2)c(=O)c2c3c(sc21)CCCC3` is lower in “hERG current change (%, negative = inhibition) at 1uM” value: 16.1% for the first, -13% for the second.

Going from `CCc1noc(C)c1C(=O)N1CCCC(C(=O)c2cc(F)ccc2OC)C1` (stereo not drawn) to `CCOC(=O)C1CCCN(S(=O)(=O)c2ccc3c4c(cccc24)C(=O)N3CC)C1` (stereo not drawn), the “hERG current change (%, negative = inhibition) at 1uM” value falls from 9.19% to -27.6%.

Going from `O=C(Nc1ccccc1N1CCCC1)C1CCN(S(=O)(=O)c2ccc(F)cc2)CC1` to `CSc1cccc(NC(=O)C2CCN(S(=O)(=O)c3ccc(F)cc3)CC2)c1`, the “hERG current change (%, negative = inhibition) at 1uM” value falls from 11.5% to 6.66%.

Compared with `O=C(NC(Cc1ccccc1)C(=O)N1CCN(S(=O)(=O)c2ccccc2)CC1)c1ccccc1` (stereo not drawn), `O=C(Cc1ccc2c(c1)OCCO2)N1CCN(S(=O)(=O)c2ccccc2C(F)(F)F)CC1` is lower in “hERG current change (%, negative = inhibition) at 1uM” value: 0.385% for the first, -3.22% for the second.

Going from `C=C1CC[C@@]23CC[C@]4(C)[C@@](OC2=O)([C@@H]3C1)[C@H]1O[C@H]1C1[C@@]2(C)CC[C@H](O)C(C)(C)C2CC[C@]14C` (stereo partly drawn) to `O=C1CC2(CCCCC2)Oc2ccc(O)cc21`, the “hERG current change (%, negative = inhibition) at 1uM” value falls from 3.47% to -4.76%.

Going from `NS(=O)(=O)c1ccc(CCNC(=O)COC(=O)c2cc([N+](=O)[O-])ccc2N2CCOCC2)cc1` to `CN1C(=O)C(C)(C)c2cc(S(=O)(=O)N3CCCC(C(=O)NCc4ccc(Cl)cc4)C3)ccc21` (stereo not drawn), the “hERG current change (%, negative = inhibition) at 1uM” value falls from 17.3% to 5.86%.

First: CN1C(=S)NC(C)(C)CC1(C)c1ccc(O)cc1O (stereo not drawn)
Second: CN(C)Cc1cc(C(C)(C)C)cc(C(C)(C)C)c1O
The “hERG current change (%, negative = inhibition) at 1uM” value of the first is higher: 14.5% for the first, 5.8% for the second.

Compared with `CN(C)NC(=O)c1ccsc1NC(=O)c1ccc(S(=O)(=O)N(C)C)cc1`, `CC(=O)c1ccc(NC(=O)/C(=C\c2ccco2)NC(=O)c2ccco2)cc1` is higher in “hERG current change (%, negative = inhibition) at 1uM” value: 2.87% for the first, 4.96% for the second.

Going from `O=C(Cn1nnc(-c2ccc(Cl)cc2)n1)NCc1ccco1` to `S=C(NCc1ccco1)Nc1ccccc1Cl`, the “hERG current change (%, negative = inhibition) at 1uM” value falls from 11% to -0.927%.

Compared with `COc1ccc(OC)c(C2/C(=C(/O)c3cnn(-c4ccccc4)c3C)C(=O)C(=O)N2CCN(C)C)c1` (stereo not drawn), `COc1ccc(OC)c(NC(=O)CCn2cccc2)c1` is lower in “hERG current change (%, negative = inhibition) at 1uM” value: 15% for the first, 7.06% for the second.

Compared with `Cc1ccc(C)c(-n2c(Cc3cc(=O)[nH]c(=O)[nH]3)nnc2SC(C)C)c1`, `CCOC(=O)c1cc(-c2cccc(C(F)(F)F)c2)nc2nc(SC)[nH]c(=O)c12` is lower in “hERG current change (%, negative = inhibition) at 1uM” value: 5.78% for the first, -11% for the second.

Going from `Cc1noc(C)c1S(=O)(=O)N1CCC(C(=O)N2CCN(Cc3ccc4c(c3)OCO4)CC2)CC1` to `Cc1ccc(Nc2nc(C(=O)N3CCC(C(=O)N4CCN(C)CC4)CC3)cs2)cc1`, the “hERG current change (%, negative = inhibition) at 1uM” value rises from 4.13% to 14.2%.

Compared with `O=C(c1ccco1)N1N=C(c2ccncc2)CC1(O)C(F)(F)F` (stereo not drawn), `CC(=O)N1N=C(c2ccncc2)OC12CCCCCC2` is higher in “hERG current change (%, negative = inhibition) at 1uM” value: -2.1% for the first, 10.9% for the second.

Compared with `CC(C)(C)NC(=O)N1CCn2cccc2C1c1ccccc1F` (stereo not drawn), `COc1ccc(NC(=O)N2CCCc3ccccc32)cc1OC` is higher in “hERG current change (%, negative = inhibition) at 1uM” value: 12.8% for the first, 14.3% for the second.

First: c1ccc(SCc2nc(-c3ccncc3)no2)cc1
Second: OCCCNc1nc(-c2ccccc2)nc2c1oc1ccccc12
The “hERG current change (%, negative = inhibition) at 1uM” value of the first is lower: 11.1% for the first, 16.8% for the second.

Going from `Cc1cccn2cc(-c3cc4ccccc4oc3=O)nc12` to `COc1ccccc1-c1nnc(SCC(=O)Nc2c(Cl)cccc2Cl)o1`, the “hERG current change (%, negative = inhibition) at 1uM” value falls from 11.6% to 0.12%.

First: NC(=O)C1=C[C@@H](c2ccccc2)C[C@@H](OCCCCO)O1
Second: O=C(CCn1cccc1)NC1CCCc2ccccc21 (stereo not drawn)
The “hERG current change (%, negative = inhibition) at 1uM” value of the first is higher: 16.7% for the first, 10.9% for the second.

Compared with `COc1ccc(S(=O)(=O)N2CCN(c3ccc(C)cc3C)CC2)cc1OC`, `Cc1ccc(S(=O)(=O)N2CCCCC2)cc1NC(=O)COC(=O)Cc1c(F)cccc1Cl` is higher in “hERG current change (%, negative = inhibition) at 1uM” value: 4.67% for the first, 14.5% for the second.

First: CC1CCc2c(sc(NC(=O)C3=COCCO3)c2C(N)=O)C1 (stereo not drawn)
Second: Cc1ccc(NC(=O)c2oc3ccccc3c2NC(=O)C2CC2)cc1
The “hERG current change (%, negative = inhibition) at 1uM” value of the first is higher: 6.96% for the first, 4.39% for the second.

First: CCCCOc1ccc(C(=O)NCc2ccncc2)cc1
Second: CCOc1ccc(S(=O)(=O)N(CC(=O)NCc2cccnc2)c2ccc(C)cc2)cc1
The “hERG current change (%, negative = inhibition) at 1uM” value of the first is higher: 4.06% for the first, -52.4% for the second.

First: NC(=O)CSc1nnc(-c2cnccn2)n1Cc1ccco1
Second: O=C(CSc1nnc(-c2cccnc2)n1C1CCCCC1)NC1CCCC1
The “hERG current change (%, negative = inhibition) at 1uM” value of the first is higher: 10.9% for the first, -10% for the second.

Going from `Cc1nc(NN)c2c3c(sc2n1)COC(C)(C)C3` to `CCOC(=O)C(=CNc1nc2ccc(C(=O)OCC)cc2s1)C(=O)OCC`, the “hERG current change (%, negative = inhibition) at 1uM” value rises from 9.19% to 15.8%.

Going from `CC(OC(=O)CCc1cc(C(C)(C)C)c(O)c(C(C)(C)C)c1)C(=O)NC1CC1` (stereo not drawn) to `CCN=C(NCC)SC1CC(=O)N(c2ccc(OCC)cc2)C1=O` (stereo not drawn), the “hERG current change (%, negative = inhibition) at 1uM” value rises from 6.76% to 7.6%.

Going from `C=CC(=O)NC(NC(=O)C=C)c1ccc(Br)cc1` to `O=C(CCN1C(=O)c2ccccc2C1=O)NC(=S)Nc1ccccc1`, the “hERG current change (%, negative = inhibition) at 1uM” value rises from 3.98% to 5.81%.

First: CCCCn1ccnc1C
Second: CCN(CCn1cccn1)C(=O)c1cc(COc2ccc(F)cc2Cl)on1
The “hERG current change (%, negative = inhibition) at 1uM” value of the first is higher: 7.41% for the first, 2.39% for the second.

First: O=C(COc1ccc(S(=O)(=O)NC2CCCC2)cc1)N1CCCCCC1
Second: CCOc1ccccc1CN1CCNC(=O)C1CC(=O)N(C)CCC1CCOCC1 (stereo not drawn)
The “hERG current change (%, negative = inhibition) at 1uM” value of the first is higher: 15.9% for the first, 9.31% for the second.

`CCC(C)[C@@H](C(=O)N1CCNCC1)n1cc(CCCN=C(N)N)nn1.Cl` (stereo partly drawn) was tested, and the “hERG current change (%, negative = inhibition) at 1uM” value was 12%.
